Where two headings read alike, the source gives them in different places.

The assay concerns P. aeruginosa strain ATCC 27853. The class given is cell-based, Pseudomonas aeruginosa. The note with it: for MIC increase over the 28-day serial passage: Cation-Adjusted Mueller Hinton Broth (CAMHB); for change in antibiotic MIC after 28 days in the presence of ⅛th MIC of GN370: GN370 0.125 μg/mL.
Setting [1] is: in the absence of GN370 (GN370: alone).

Consider `C[C@H]1COc2c(N3CCN(C)CC3)c(F)cc3c(=O)c(C(=O)O)cn1c23` [levofloxacin, reference compound], for which the “MIC increase over the 28-day serial passage” value was not above 64 fold. Besides, the “antibiotic MIC increase after 28 days with 1/16th MIC and 1/32nd MIC of GN370” value (GN370 0.0625 μg/mL and […]) amounted to 2 fold. Also, the “MIC increase after 28 days, agent alone” value under setting [1] is on record as 16 fold.
As for `C[C@@H](O)[C@H]1C(=O)N2C(C(=O)O)=C(S[C@@H]3CN[C@H](C(=O)N(C)C)C3)[C@H](C)[C@H]12` [meropenem, reference compound], the “MIC increase over the 28-day serial passage” value is reported as “up to 1024 fold” and the “change in antibiotic MIC after 28 days in the presence of ⅛th MIC of GN370” value is on record as “no change in MIC”. The “antibiotic MIC increase after 28 days in the presence of ⅛th MIC of GN370” value (another instance) came out at 2 fold. The “MIC increase after 28 days, agent alone” value under setting [1] is 32 fold.
For `NC[C@H]1O[C@H](O[C@H]2[C@H](O)[C@@H](O[C@H]3O[C@H](CO)[C@@H](O)[C@H](N)[C@H]3O)[C@H](N)C[C@@H]2N)[C@H](N)C[C@@H]1O` [tobramycin, reference compound], the “MIC increase over the 28-day serial passage” value was not above 32 fold and the “change in antibiotic MIC after 28 days in the presence of ⅛th MIC of GN370” value is listed as “no change in MIC”. Moreover, the “MIC increase after 28 days, agent alone” value under setting [1] amounted to 32 fold. Further, the “MIC increase after 28 days, agent alone” value (in the absence of GN370, another instance) was not above 4 fold.

The values above are taken from patent US20240181022A1, “AMURINS LYSINS, AND LYSIN-ANTIMICROBIAL PEPTIDE (AMP) CONSTRUCTS ACTIVE AGAINST GRAM-NEGATIVE BACTERIA” (priority 2021, published 2024).
